From PubChem BioAssay AID485344 (National Center for Advancing Translational Sciences (NCATS), 2010)
“And” between values parts separate entries of the source, which are not always exact repeats. Equal entries are not always repeated. Screen size: about 340,000 compounds; about 6,900 (2%) were called active. Rule as the data show it: active = inhibition above about 30%; inactive = below that, where a call was filed. This is a selection; strong and weak results do not stand in their true shares. Entries without a call were filed so in the source.

target: D(2) dopamine receptor (Homo sapiens) (UniProt P14416); experiment: HTS Assay for Allosteric Antagonists of the Human D2 Dopamine Receptor: Primary Screen for Antagonists; details: HEK293 TREx D2 cells, calcium flux, dopamine EC80; at 10 µM; stronger effect = higher value; also: 0% is about no effect
Procedure, shortened: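 Tetracycline-induced HEK293 T-REx cells expressing D2 force-coupled to calcium signalling were dye-loaded, exposed to compound for 180 s, then challenged with an EC80 of dopamine; calcium flux was followed kinetically for a further 180 s.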

Sequence of UniProt P14416 (P14416 whole entry, looked up): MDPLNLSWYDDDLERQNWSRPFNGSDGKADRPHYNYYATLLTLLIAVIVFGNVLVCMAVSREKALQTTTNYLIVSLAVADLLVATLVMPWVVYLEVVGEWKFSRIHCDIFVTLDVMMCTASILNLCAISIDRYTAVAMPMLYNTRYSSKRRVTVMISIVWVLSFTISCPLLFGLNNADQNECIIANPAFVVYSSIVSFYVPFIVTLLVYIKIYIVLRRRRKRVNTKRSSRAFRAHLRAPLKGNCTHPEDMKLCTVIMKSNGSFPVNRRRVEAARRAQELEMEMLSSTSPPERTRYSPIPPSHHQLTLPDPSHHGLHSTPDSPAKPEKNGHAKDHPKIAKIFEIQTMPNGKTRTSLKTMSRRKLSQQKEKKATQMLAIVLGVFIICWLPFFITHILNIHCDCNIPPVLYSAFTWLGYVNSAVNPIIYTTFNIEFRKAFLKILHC

**Q.** Which inhibition does the source give for `Cc1nn(CC(=O)NC2CC2)c(=O)c2cc3cc(F)ccc3n12` here?
**A.** The inhibition was 10.3%.

**Q.** With `Cc1ccc(NC(=O)c2ccc3c(c2)NC(=O)c2ccccc2S3)c(Cl)c1` as the molecule, how does the inhibition read?
**A.** Its inhibition is 21.6%.

**Q.** For `CCOC(=O)c1cccc(NC(=O)Cn2ncc3c(=O)oc4ccccc4c32)c1`, which inhibition is on record?
**A.** Its inhibition is 1.5%.

**Q.** How did the inhibition turn out when `Cn1c(=O)c2c(nc(SCC(=O)Nc3ccccc3F)n2Cc2ccccc2F)n(C)c1=O` was run?
**A.** Its inhibition is 18.8%.

**Q.** For `COc1ccc(CNC(=O)C(=O)NCC(c2ccco2)S(=O)(=O)c2ccc(Cl)cc2)cc1` (stereo unspecified), which inhibition is on record?
**A.** Its inhibition is -15.3%.

**Q.** With `CCOC(=O)c1c(C)oc2ncnc(Nc3cccc(C(F)(F)F)c3)c12` as the molecule, how does the inhibition read?
**A.** Its inhibition is 9.44%.

**Q.** With `Cc1ccc(OCC(=O)Nc2ccc(OCc3cc(=O)n4c(C)csc4n3)cc2)cc1C` as the molecule, how does the inhibition read?
**A.** Its inhibition is 1.29%.

**Q.** For `O=c1oc2ccccc2cc1-c1cn2cc(Cc3ccc(F)cc3)sc2n1`, which inhibition is on record?
**A.** Its inhibition is 22.3%.

**Q.** Which inhibition does the source give for `CCc1ccc(NC(=O)CC(NCc2cccnc2)C(=O)O)cc1` (stereo unspecified) here?
**A.** The inhibition was -8.42%.

**Q.** `CCOC(=O)c1cc(NC(=O)c2ccc(Cl)cc2)c(=O)n2c1oc1ccc(Cl)cc12` was tested. Which inhibition did it give?
**A.** The inhibition was active: 31.5%.

**Q.** `c1ccc(CCN=C2CCCc3c2[nH]c2ccccc32)cc1` was tested. Which inhibition did it give?
**A.** Its inhibition is active: 58.1%.

**Q.** `CCOC(=O)c1c(NC(=O)Cc2coc3ccc(CC)cc23)sc2c1CCC2` was tested. Which inhibition did it give?
**A.** Its inhibition is -8%.

**Q.** For `CCOc1ccc2nc(N3CCCC(C(=O)NCCc4ccc(Cl)cc4)C3)sc2c1` (stereo unspecified), which inhibition is on record?
**A.** The inhibition was 5.7%.

**Q.** For `CC(=O)OC1C(N2CCCCC2)c2c(ccc(/C=C/C(=O)N3CCCCC3)c2O)OC1(C)C` (stereo unspecified), which inhibition is on record?
**A.** The inhibition was active: 30.4%.

**Q.** How did the inhibition turn out when `CC(C)C(=O)Nc1nnc(S(=O)(=O)N2CCc3ccccc32)s1` was run?
**A.** The inhibition was 11.4%.

**Q.** With `Cc1cccc(N2CCN(c3ccc4cc(S(=O)(=O)N5CCC(C)CC5)ccc4n3)CC2)c1C` as the molecule, how does the inhibition read?
**A.** Its inhibition is 2.55%.

**Q.** Which inhibition does the source give for `CCOc1ccc(NC(=O)Cn2nc(Cc3cccnc3)c3ccccc3c2=O)cc1` here?
**A.** Its inhibition is 4.49%.

**Q.** How did the inhibition turn out when `COc1ccccc1NC(=O)N1CCN(c2ccc3nnc(-c4ccc(F)cc4)n3n2)CC1` was run?
**A.** Its inhibition is -1.53%.

**Q.** How did the inhibition turn out when `COc1ccc(N2CCN(CCCNC(=O)c3c(C)nn(-c4ccc(F)cc4)c3-n3cccc3)CC2)cc1` was run?
**A.** Its inhibition is 15.1%.

**Q.** How did the inhibition turn out when `COc1ccc(S(=O)(=O)N(CC(=O)NC(C)c2ccccc2)c2ccc(C)cc2)cc1OC` (stereo unspecified) was run?
**A.** The inhibition was 15.3%.

**Q.** With `CCc1ccc(NC(=O)Cn2nnc(-c3ccccc3N)n2)cc1` as the molecule, how does the inhibition read?
**A.** Its inhibition is -9.06%.

**Q.** `COc1ccccc1N1CCN(C(=O)c2cc3c(=O)n(Cc4cccs4)ccc3nc2C)CC1` was tested. Which inhibition did it give?
**A.** Its inhibition is -0.734%.

**Q.** Which inhibition does the source give for `CCOC(=O)N1CCc2c(sc3c2c(=O)n(-c2ccc(CC)cc2)c(=O)n3Cc2ccc(F)cc2Cl)C1` here?
**A.** The inhibition was 9.62%.

**Q.** Which inhibition does the source give for `CCOc1ccccc1-c1noc(CSc2nnc(-c3ccccc3)n2-c2ccc(OC)cc2)n1` here?
**A.** The inhibition was -7.45%.

**Q.** For `CN(Cc1nc(-c2ccc(Cl)cc2)no1)S(=O)(=O)c1ccccc1`, which inhibition is on record?
**A.** Its inhibition is -5.63%.

**Q.** With `NC(=O)C1C(c2ccccc2)=C1c1ccccc1` as the molecule, how does the inhibition read?
**A.** The inhibition was active: 38.4%.

**Q.** `CC(C)c1ccc(C2CC(=O)Nc3cc4c(cc32)OCCO4)cc1` (stereo unspecified) was tested. Which inhibition did it give?
**A.** The inhibition was 8.9%.

**Q.** Which inhibition does the source give for `Cc1ccccc1Cn1ccn(-c2ccc(F)c(F)c2)c(=O)c1=O` here?
**A.** Its inhibition is 24.4%.

**Q.** With `CCOC(=O)CSc1nc2ccccc2c(=O)n1-c1ccc(C(=O)NCCOC)cc1` as the molecule, how does the inhibition read?
**A.** Its inhibition is 4.07%.

**Q.** How did the inhibition turn out when `Cc1ccc(N2C(=O)CS(=O)(=O)C23C(=O)Nc2ccccc23)cc1C` (stereo unspecified) was run?
**A.** The inhibition was 3.67%.

**Q.** How did the inhibition turn out when `O=C(Nc1ccccc1C(F)(F)F)N1CCOc2ccc(Cl)cc21` was run?
**A.** The inhibition was 9.67%.

**Q.** Which inhibition does the source give for `Cc1nn(-c2ccccc2)c(OC(=O)c2ccccc2)c1S(=O)(=O)c1ccccc1` here?
**A.** Its inhibition is 1.6%.

**Q.** `COc1c(Cl)cc(C(=O)Nc2cc(-c3nc4ccccc4[nH]3)ccc2C)cc1Cl` was tested. Which inhibition did it give?
**A.** The inhibition was 1.91%.

**Q.** How did the inhibition turn out when `Cc1ccc2oc(C(=O)Nc3c(C(=O)Nc4cccc(Cl)c4)oc4ccccc34)cc(=O)c2c1` was run?
**A.** Its inhibition is 1.17%.

**Q.** `C/C(CC(=O)Nc1ccc2c(c1)OCCO2)=N\NC(=O)C(=O)Nc1ccccc1C` was tested. Which inhibition did it give?
**A.** Its inhibition is active: 32%.

**Q.** For `COc1ccc(N2CCN(C(=O)Nc3cn(CC(C)C)c(=O)c4ccccc34)CC2)cc1`, which inhibition is on record?
**A.** Its inhibition is -2.59%.

**Q.** With `Cc1c(Cl)cccc1NC(=O)c1cc(-c2ccc3c(c2)OCO3)on1` as the molecule, how does the inhibition read?
**A.** The inhibition was -14.7%.

**Q.** `O=C(NCc1cccs1)c1ccc2c(c1)sc1nc(-c3ccc(F)cc3)cn12` was tested. Which inhibition did it give?
**A.** Its inhibition is -10.8%.

**Q.** For `O=C(Nc1cc(Cl)ccc1Cl)c1ccc2c(c1)N(Cc1cccc(Cl)c1)C(=O)c1ccccc1S2=O` (stereo unspecified), which inhibition is on record?
**A.** The inhibition was 4.1%.

**Q.** How did the inhibition turn out when `Cc1ccc(Nc2c(-c3ccccn3)nc3ccc(Br)cn23)cc1` was run?
**A.** The inhibition was -10.6%.

**Q.** Which inhibition does the source give for `CCC(=O)N1CCc2cc(Br)cc(S(=O)(=O)N3CCCC(C(=O)Nc4ccc(C)c(F)c4)C3)c21` (stereo unspecified) here?
**A.** The inhibition was -16.1%.

**Q.** With `Cc1ccc(C(=O)N(Cc2ccc(N(C)C)cc2)CC2CCCO2)cc1` (stereo unspecified) as the molecule, how does the inhibition read?
**A.** Its inhibition is -3.56%.

**Q.** `Cc1nn(C(C)C(=O)NCc2ccc(OC(C)C)cc2)c(=O)c2c1sc1ccccc12` (stereo unspecified) was tested. Which inhibition did it give?
**A.** Its inhibition is 9.55%.

**Q.** With `CCCCNC(=O)CCC(=O)NNc1nc2ccccc2c2nc(C)nn12` as the molecule, how does the inhibition read?
**A.** The inhibition was -4.98%.

**Q.** With `CC(CCc1ccccc1)NC(=O)CSc1n[nH]c(-c2ccccc2)n1` (stereo unspecified) as the molecule, how does the inhibition read?
**A.** Its inhibition is 12.3%.

**Q.** How did the inhibition turn out when `Cc1ccc2ccc3cc(C(=O)N4CCN(c5ccccc5F)CC4)nc3c2[nH]1` was run?
**A.** Its inhibition is 10.3%.

**Q.** Which inhibition does the source give for `COc1ccccc1NC(=O)c1c(-c2ccc(C)cc2)nnc2ccccc12` here?
**A.** The inhibition was -3.97%.

**Q.** For `CCC(=O)N1CCc2cc(S(=O)(=O)NC(Cc3ccccc3)C(=O)NCc3ccccc3)ccc21` (stereo unspecified), which inhibition is on record?
**A.** Its inhibition is 17.6%.

**Q.** Which inhibition does the source give for `CCN(C(=O)CN1C(=O)c2ccccc2Sc2ccc(C(=O)OC)cc21)c1cccc(C)c1` here?
**A.** The inhibition was 26.5%.

**Q.** For `CC(=O)c1ccc(NC(=O)CN2CCN(c3ccccc3)CC2)cc1`, which inhibition is on record?
**A.** Its inhibition is active: 36.7%.

**Q.** Which inhibition does the source give for `CCOC(=O)c1csc(NC(=O)C(C)(C)C)n1` here?
**A.** The inhibition was active: 40.7%.

**Q.** Which inhibition does the source give for `O=C(N/N=C/c1ccco1)c1cc(-c2ccccc2)nc2ccccc12` here?
**A.** Its inhibition is active: 36.9%.

**Q.** Which inhibition does the source give for `CCCCNc1nc2c(S(=O)(=O)c3ccc(Br)cc3)nnn2c2ccsc12` here?
**A.** Its inhibition is 16.5%.

**Q.** With `Cc1ccc(NC(=O)Cn2c(=O)n(Cc3nc(-c4ccccc4)no3)c(=O)c3ccccc32)c(C)c1` as the molecule, how does the inhibition read?
**A.** The inhibition was 1.2%.

**Q.** Which inhibition does the source give for `O=C(Cn1ncc2c3ccccc3n(Cc3ccccc3)c2c1=O)NCCc1ccc(Cl)cc1` here?
**A.** Its inhibition is -5.29%.

**Q.** With `COc1ccc(S(=O)(=O)N2CCC(c3nc4ccccc4s3)CC2)cc1OC` as the molecule, how does the inhibition read?
**A.** The inhibition was 2.53%.

**Q.** For `CCCNC(=O)c1ccc2c(c1)N=C(CCC)c1ccccc1S2`, which inhibition is on record?
**A.** Its inhibition is -1.95%.

**Q.** For `COc1cccc(NC(=O)Cn2nc(N3CCN(c4ccccc4)CC3)ccc2=O)c1`, which inhibition is on record?
**A.** The inhibition was -9.3%.

**Q.** How did the inhibition turn out when `O=C(Cn1nc2c(cc1=O)CCCC2)NCc1ccc(Cl)cc1` was run?
**A.** Its inhibition is 8.23%.

**Q.** `Cc1cccc(CSc2cn(CC(=O)N3CCOCC3)c3ccccc23)c1` was tested. Which inhibition did it give?
**A.** The inhibition was active: 34.8% and -6.94%.

**Q.** Which inhibition does the source give for `CC(=O)NC1CC2CCC(C1)N2Cc1ccc(C)cc1` (stereo unspecified) here?
**A.** The inhibition was active: 50.9%.
